Laboratory results reported in the antibiotic and cytotoxicity screens of Wong et al. (2023).
The other results are listed elsewhere or left out.

Tests used:
HSkMC = human skeletal muscle cells; assay: cytotoxicity call (relative viability < 0.9); details: 10 µM
HepG2 = assay: cytotoxicity call (relative viability < 0.9); details: 10 µM
S. aureus RN4220 = assay: growth inhibition call (relative growth <= 0.2); details: 50 µM

**Q.** Which cytotoxicity call (HSkMC) does the source give for C[C@H](CO)N1C[C@H](C)[C@@H](CN(C)S(=O)(=O)c2ccccc2)Oc2c(NC(=O)Nc3cccc4ccccc34)cccc2C1=O here?
**A.** Its cytotoxicity call is “inactive”.

**Q.** What about the cytotoxicity call (HepG2) of the same compound?
**A.** The cytotoxicity call was “inactive”.

**Q.** What about the growth inhibition call (S. aureus RN4220) of the same compound?
**A.** Its growth inhibition call is “inactive”.

**Q.** What does the source list for COc1ccc2c3c(n(c2c1)C)[C@@H](CO)N(Cc1cc(cc(c1)OC)OC)C[C@]13CCN(CC1)C(=O)CN1CCOCC1?
**A.** cytotoxicity call (HSkMC): inactive; cytotoxicity call (HepG2): inactive; growth inhibition call (S. aureus RN4220): inactive

**Q.** What does the source list for Cc1ccccc1S(=O)(=O)N1C[C@@H](O)COC[C@H]2O[C@@H](CC(=O)N3CCC(Cc4ccccc4)CC3)CC[C@@H]21?
**A.** cytotoxicity call (HSkMC): inactive; cytotoxicity call (HepG2): inactive; growth inhibition call (S. aureus RN4220): inactive

**Q.** Which cytotoxicity call (HSkMC) does the source give for C[C@@H]1CN([C@H](C)CO)C(=O)CCCn2cc(nn2)CO[C@H]1CN(C)S(=O)(=O)c1ccc(-n2cccn2)cc1 here?
**A.** Its cytotoxicity call is “inactive”.

**Q.** And the cytotoxicity call (HepG2)?
**A.** The cytotoxicity call was “inactive”.

**Q.** What about the growth inhibition call (S. aureus RN4220) of the same compound?
**A.** Its growth inhibition call is “inactive”.

**Q.** Which cytotoxicity call (HSkMC) does the source give for O=C(CN1CCOCC1)NCC[C@@H]1CC[C@H](NS(=O)(=O)c2ccc(F)cc2)[C@H](CO)O1 here?
**A.** Its cytotoxicity call is “inactive”.

**Q.** What about the cytotoxicity call (HepG2) of the same compound?
**A.** The cytotoxicity call was “inactive”.

**Q.** And the growth inhibition call (S. aureus RN4220)?
**A.** Its growth inhibition call is “inactive”.

**Q.** Which cytotoxicity call (HSkMC) does the source give for COc1ccc(CN(C)C[C@@H]2OCCCC[C@H](C)Oc3ccc(NC(=O)Nc4ccc(F)cc4)cc3C(=O)N([C@@H](C)CO)C[C@@H]2C)cc1 here?
**A.** The cytotoxicity call was “inactive”.

**Q.** What about the cytotoxicity call (HepG2) of the same compound?
**A.** The cytotoxicity call was “active”.

**Q.** And the growth inhibition call (S. aureus RN4220)?
**A.** Its growth inhibition call is “inactive”.

**Q.** With Cc1noc(C)c1S(=O)(=O)Nc1ccc2c(c1)CC(=O)N([C@H](C)CO)C[C@@H](C)[C@@H](CN(C)C(=O)NC1CCCCC1)O2 as the compound, how does the cytotoxicity call (HSkMC) read?
**A.** Its cytotoxicity call is “inactive”.

**Q.** What about the cytotoxicity call (HepG2) of the same compound?
**A.** Its cytotoxicity call is “inactive”.

**Q.** And the growth inhibition call (S. aureus RN4220)?
**A.** The growth inhibition call was “inactive”.

**Q.** With Cc1ccc(-c2cnc3c(c2)C(=O)N([C@@H](C)CO)C[C@@H](C)[C@@H](CN(C)C(=O)Cc2ccncc2)O3)cc1 as the compound, how does the cytotoxicity call (HSkMC) read?
**A.** The cytotoxicity call was “inactive”.

**Q.** What about the cytotoxicity call (HepG2) of the same compound?
**A.** Its cytotoxicity call is “inactive”.

**Q.** What about the growth inhibition call (S. aureus RN4220) of the same compound?
**A.** Its growth inhibition call is “inactive”.

**Q.** How did the cytotoxicity call (HSkMC) turn out when C[C@@H]1CN([C@H](C)CO)C(=O)c2cc(NC(=O)Cc3ccccc3)ccc2O[C@H]1CN(C)Cc1ccc(-c2ccccc2)cc1 was run?
**A.** Its cytotoxicity call is “inactive”.

**Q.** And the cytotoxicity call (HepG2)?
**A.** The cytotoxicity call was “active”.

**Q.** What about the growth inhibition call (S. aureus RN4220) of the same compound?
**A.** The growth inhibition call was “inactive”.

**Q.** With CO[C@@H](CN(C)C(=O)Nc1ccc(C(F)(F)F)cc1)[C@H](C)CN(Cc1ccccc1Cl)[C@@H](C)CO as the compound, how does the cytotoxicity call (HSkMC) read?
**A.** The cytotoxicity call was “inactive”.

**Q.** And the cytotoxicity call (HepG2)?
**A.** Its cytotoxicity call is “inactive”.

**Q.** What about the growth inhibition call (S. aureus RN4220) of the same compound?
**A.** Its growth inhibition call is “inactive”.

**Q.** For COc1ccc2c3c(n(c2c1)C)[C@@H](CO)N(C[C@]13CCN(CC1)C(=O)CN(C)C)S(=O)(=O)C, which cytotoxicity call (HSkMC) is on record?
**A.** Its cytotoxicity call is “inactive”.

**Q.** What about the cytotoxicity call (HepG2) of the same compound?
**A.** The cytotoxicity call was “inactive”.

**Q.** And the growth inhibition call (S. aureus RN4220)?
**A.** The growth inhibition call was “inactive”.

**Q.** With C[C@H]1CCCCO[C@H](CN(C)C(=O)CCCN(C)C)[C@@H](C)CN([C@@H](C)CO)C(=O)c2cc(NC(=O)Nc3ccc(C(F)(F)F)cc3)ccc2O1 as the compound, how does the cytotoxicity call (HSkMC) read?
**A.** Its cytotoxicity call is “inactive”.

**Q.** And the cytotoxicity call (HepG2)?
**A.** Its cytotoxicity call is “inactive”.

**Q.** What about the growth inhibition call (S. aureus RN4220) of the same compound?
**A.** Its growth inhibition call is “inactive”.

**Q.** With C[C@@H]1CN([C@H](C)CO)C(=O)c2cc(NS(C)(=O)=O)ccc2O[C@@H](C)CCCCO[C@@H]1CN(C)S(=O)(=O)c1ccccc1 as the compound, how does the cytotoxicity call (HSkMC) read?
**A.** Its cytotoxicity call is “inactive”.

**Q.** What about the cytotoxicity call (HepG2) of the same compound?
**A.** The cytotoxicity call was “inactive”.

**Q.** And the growth inhibition call (S. aureus RN4220)?
**A.** Its growth inhibition call is “inactive”.

**Q.** How did the cytotoxicity call (HSkMC) turn out when C[C@@H]1CCCCO[C@@H](CN(C)Cc2ccc(C(=O)O)cc2)[C@H](C)CN([C@@H](C)CO)C(=O)c2cc(NC(=O)Nc3ccc(C(F)(F)F)cc3)ccc2O1 was run?
**A.** The cytotoxicity call was “inactive”.

**Q.** And the cytotoxicity call (HepG2)?
**A.** Its cytotoxicity call is “inactive”.

**Q.** What about the growth inhibition call (S. aureus RN4220) of the same compound?
**A.** The growth inhibition call was “inactive”.
